PMC12136788
Numbering of substitutions follows the chain as printed. The list shows a part of the results.

T1: UNK ZnF1-3 (human, UniProt Q9C0B0 31-174)
T1 sequence: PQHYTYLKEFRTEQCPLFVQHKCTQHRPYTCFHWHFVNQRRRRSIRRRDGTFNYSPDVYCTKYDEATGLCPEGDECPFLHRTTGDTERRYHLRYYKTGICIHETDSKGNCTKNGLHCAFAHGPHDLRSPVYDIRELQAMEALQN

B1: chr2:73747301:73747302:-_ENSMUSG00000018770_ENSMUST00000018914|mus_mus|FALSE|FALSE (ssRNA)
RNA: GGGAGUUCUACAGUCCGACGAUCAUAACCAAUGAUAAGACUGCCAAAGACUGUUCCAAUACCAGCACCAGAACCAGCAACUCCUACUGUUGCAGCACCUGCACCAAUGAAUUUGGCAGCAGUAUCAAUGUCUCUGCUGAUUACCAACAGAGGAUUGAGCAUCA
B2: chr4:110743517:110743518:+_ENSG00000109534_ENST00000226796|hu_mus|FALSE|FALSE (ssRNA)
RNA: GGGAGUUCUACAGUCCGACGAUCUUUCUCACCAGGAGGACGAGGCAGAAACCUCUGCAGCGGCAGCAGCUUGUAUGGGUCUAUAUAGAACUUCUGUAGCUUUUUAAAGGAAGAUGCCUUCAUGUUUUCUGACAACUUAACUGACAACAGAGGAUUGAGCAUCA
B3: 114133280_114145501_871_3pUTR_ENSMUSG00000033545_ENSMUST00000095176|mouse|control|control (ssRNA)
RNA: GGGAGUUCUACAGUCCGACGAUCAUGCAGCUUUUGUGAUAGAUGCACAGGCAAGGCAGCCUGGCUAUCGUGUCCCCCUGAAGCAGCUCCUCCAGGCAGAUCACACACUCACCCGCAUCUUUAGUCAGCACAUCAUCAUUGUAGCAACAGAGGAUUGAGCAUCA
B4: chr7:151048522:151048523:+_ENSG00000013374_ENST00000566856|hu_mus|hu_hu_hu_mus_True|48_108 (ssRNA)
RNA: GGGAGUUCUACAGUCCGACGAUCCUGCUUCUUAUUUAUUACGAUCUUGAUGUAAUUUUCUUGAAAUCCGAAAGUUUCAGCUAUUUGGGACCUCAGUUCUCUACCAGUGACAUGCAAGCGGGUCUCCAACAAGCUUUUCUUAUCCAACAGAGGAUUGAGCAUCA
B5: chr8:112747817:112747818:+_ENSMUSG00000046441_ENSMUST00000056972|mus_hu|FALSE|FALSE (ssRNA)
RNA: GGGAGUUCUACAGUCCGACGAUCAAACAUGAUCUUUGGUUUAAAGCUGUCCCGUUAUAUUUUUAUAGUUGGAUGGUGUGGUCAGUAAAAGAUUCAUACAACAGCAUACUAGUUUUAUUUGAGCCAUGUAAGAAAAUAGGGUCACAACAGAGGAUUGAGCAUCA
B6: chr11:46405157:46405158:+_ENSG00000110492_ENST00000395566|hu_hu|hu_hu_hu_mus_False|1_28 (ssRNA)
RNA: GGGAGUUCUACAGUCCGACGAUCCCCUCCCCACUUUGGGCACUUGGUGUGGGCGUGAGAGGACAGGCGUGAUUGACAGAGCUGACAGGAAGACAAAAGGCACUGGUGGGUCACAUCUUGGGCCUGUGGGAGAGGAGGCGUGGGCAACAGAGGAUUGAGCAUCA
B7: chr2:216981417:216981418:+_ENSG00000079246_ENST00000392132|hu_hu|hu_hu_hu_mus_True|8_98 (ssRNA)
RNA: GGGAGUUCUACAGUCCGACGAUCCUGAUACUGGUCCCCACCAGAAAGGGCAUUAUCAGUGCCAUCUGUGCCAUAGAGGACUAACGCAAUCUCAUCUUUGCUCUCCGAAAAUACCUGUCGUUGGACAAACAUGGUUAUCACUUUCAACAGAGGAUUGAGCAUCA
B8: chr8:32276666:32276667:-_ENSMUSG00000031578_ENSMUST00000033983|mus_hu|motif|central (ssRNA)
RNA: GGGAGUUCUACAGUCCGACGAUCACGGGGCCAGUAAAUCAGAUUUUCAUCUAUUUGCUCCAGUGCUUUCUCAUAGUUUUUACGGAGCCGGACCCGUUCCCAGAGACGCCGAGGAAAAGCCGCUCGUUCUAUAACCUUCAUAUACAACAGAGGAUUGAGCAUCA
B9: chr8:96496865:96496866:-_ENSMUSG00000031751_ENSMUST00000053766|mus_mus|motif|central (ssRNA)
RNA: GGGAGUUCUACAGUCCGACGAUCCAAGUCCAGUCAACACCAGAAGAGGCCAUGCCUAGAGUUAAAAUGUGCAAUGUUUCGGAGGGGAAGAGAAAUGUCACAAAGAAAGUAUUACAAAGGAUUAAAUUUGUCAGCUGUCCACACCAACAGAGGAUUGAGCAUCA
B10: chr1:192779330:192779331:+_ENSG00000116741_ENST00000235382|hu_hu|FALSE|FALSE (ssRNA)
RNA: GGGAGUUCUACAGUCCGACGAUCUUGCUGUUUGCUUUUUUUGCCGGUUUUGGGCUUCCCAGGAGUAGAGGAAUUUUGUAAGAAGUAGCUCAAACGGGUCUUCCAAUCUUUUAAAAGGGUCCGUUUCAUCUUUUCUCGCUUCUCCAACAGAGGAUUGAGCAUCA
B11: chr3:148802587:148802588:-_ENSG00000071794_ENST00000310053|hu_mus|hu_hu_hu_mus_False|68_68 (ssRNA)
RNA: GGGAGUUCUACAGUCCGACGAUCUCCAACAACUUGUCCUCUCAUAGUUCCAAAUAAAACCAAAUCUACUUCUUCAUCACUCGUUAGGAAGUCAUCUGGAGGAAUAAUGUCUUGGAAUUCAAAAUGUGGCAAGAAAGUUGAGUACAACAGAGGAUUGAGCAUCA
B12: chr7:77240115:77240116:+_ENSG00000127947_ENST00000248594|hu_mus|FALSE|FALSE (ssRNA)
RNA: GGGAGUUCUACAGUCCGACGAUCUUCAUACUGCUCCUUUGUUUGUACUGCCGAGUGCCUCUGUGUUCUCAUUUCUUGUAUUAAAUUAAAUACAUUAAAUUCCUCUGGAAUUUUCCCUGCUUUCAGUAAGUUCCACGUGUAAUCCAACAGAGGAUUGAGCAUCA
B13: chr3:139257661:139257662:-_ENSG00000114115_ENST00000232219|hu_mus|motif|central (ssRNA)
RNA: GGGAGUUCUACAGUCCGACGAUCCACACACUGGAGUUUGUCACCAUCCCAGCUCACAGUGGUCAUGCACUUGCGGUCGUCGGUGCCUGUCAGAUCUUCCUCAAACUCCUUCCCAACUUGGAAGUCCAUGAUAUAGUUCCGAAACAACAGAGGAUUGAGCAUCA
B14: chr2:104430758:104430759:+_ENSMUSG00000027176_ENSMUST00000028599|mus_hu|FALSE|FALSE (ssRNA)
RNA: GGGAGUUCUACAGUCCGACGAUCGCUGAUUACAACGUGCGCACUGACCGUCGAUGGGAAGCUAGAAAAGAAAAAUUAAACUAAAAACCACCCCCAAAUCAGUAAAGUUACCCCCUGCCCAGCUGAGCCAGACCGCCAACACCACAACAGAGGAUUGAGCAUCA
B15: chr2:44428564:44428565:+_ENSG00000138032_ENST00000378551|hu_hu|motif|central (ssRNA)
RNA: GGGAGUUCUACAGUCCGACGAUCAAGAGCAGAUCCUGAUUUUCCAGCUGCCCUAAAGUCUUCGUUAGUAGUGAUGUGUUCGGAUAAAUGUGUUGAGCAGUAAUUUGCCACUCGGGAUCCAGCAUGACCAUCAUAAACUGCAAACAACAGAGGAUUGAGCAUCA
B16: 201681831_201681951_920_CDS_ENSG00000082153_ENST00000409600|human|control|control (ssRNA)
RNA: GGGAGUUCUACAGUCCGACGAUCAUUUUCAUUAUAAAGGCUAUUAAGAAUGGAUGCAUUAAGUGUUCCAUUAGCCAGAAGAACACCAGUCAACAUAGCUAGCUUGUUCCUCUCCGACUCUGAAAAACCCUUCAAGAACAGCAGCAACAGAGGAUUGAGCAUCA
B17: chr7:56126341:56126342:+_ENSG00000146731_ENST00000540286|hu_mus|hu_hu_hu_mus_True|38_98 (ssRNA)
RNA: GGGAGUUCUACAGUCCGACGAUCCAUGUUUCUCCUCUUAGCUCUGCGCAGAGCUACGAUCCCUUCUUUCGCAAGGGCAUCUAAGGAAAAGGGGUCAAUUCCCUUUUGAUUAAUAACGACAAAUCCUUUAUCUGAGUCACCACACAACAGAGGAUUGAGCAUCA
B18: chr7:151048522:151048523:+_ENSG00000013374_ENST00000566856|hu_mus|hu_hu_hu_mus_True|58_88 (ssRNA)
RNA: B4 RNA with C27U, G51A, G86U, G87A, G88C, U96G
B19: 126194392_126194681_755_CDS_ENSMUSG00000042500_ENSMUST00000084289|mouse|control|control (ssRNA)
RNA: GGGAGUUCUACAGUCCGACGAUCCAGAGGGUGGUAAUAACCUUCAGGAGGUGAGAAAAAAGACCGGCCUACUGGAGUGUACCUCAUAGAGGGGAGAUGCCUUGUAAUCACAUCAAGUGCUUGUACUGAGUCAUCUGGGACUUCCAACAGAGGAUUGAGCAUCA
B20: chr10:75830775:75830776:+_ENSG00000035403_ENST00000372755|perfect_dup|motif|central (ssRNA)
RNA: GGGAGUUCUACAGUCCGACGAUCCAUAGUCUCCACCACCUCUGCCACUGUAAGAUAUUCCAAAAUUCCUUUGCAAACUCGGAUAAUUUUACGGACCUCAGCCUCAUCGAAGGUAAGGAGCAGGUCUGAUGUUCCAGAGAGGAUCAACAGAGGAUUGAGCAUCA
B21: 39874737_39876001_2784_CDS_ENSG00000121892_ENST00000303538|human|control|control (ssRNA)
RNA: GGGAGUUCUACAGUCCGACGAUCAUCAGCAUUCAGACUCCUACUGAGUGGCUCAAAAAUCUGUGCAAGCUGGACUUCUUUAUUUGUGAAUAUGGCGUGUAUACAGUGCACAGCCUGUUUUGCUUGGUGUGGAGUACCCCUCUUCAACAGAGGAUUGAGCAUCA
B22: chr9:135984185:135984186:-_ENSG00000160271_ENST00000372050|hu_mus|FALSE|FALSE (ssRNA)
RNA: GGGAGUUCUACAGUCCGACGAUCAUCUGAGCCAGGCAUGUUGAGCUGUACAUAAGCCACCAGCUGCUUGAGGCAGGGAAAGUCCGGAGGUUGACAGAAAUCCUCUGAGUAUUGGUCCAGCCAGGUGCCCAGGAUGGAGGAGAUCAACAGAGGAUUGAGCAUCA

These binders were tested against T1, UNK ZnF1-3 (assay: nsRBNS (natural sequence RNA bind-n-seq); RBNS binding buffer (assumed for nsRBNS): 25 mM Tris pH 7.5, 150 mM KCl, 3 mM MgCl2, 0.01% Triton X-100, 500 ug/ml BSA, 20 U/ml SUPERase-In, 4 C; UNK is unkempt and MSI1 is Musashi-1; names of the RNAs are library labels; protein concentration not given here; high values mean tight binding).
B1 showed a binding signal of 1.04 enrichment R. B2 showed a binding signal of 1.19 enrichment R. For B3, the binding signal was 1.02 enrichment R. B4 gave a binding signal of 0.712 enrichment R. For B5, the binding signal was 1.5 enrichment R. B6 showed a binding signal of 2.44 enrichment R. In the case of B7, the binding signal is reported as 0.926 enrichment R. Binder B8 has a binding signal of 0.81 enrichment R. For B9, the binding signal was 2.49 enrichment R. Work on B10 yielded a binding signal of 0.589 enrichment R. B11 gave a binding signal of 1.24 enrichment R. For B12, the binding signal was 0.565 enrichment R. With B13 the binding signal was 0.962 enrichment R. For B14, the binding signal was 2.24 enrichment R. For B15, the binding signal was 1.05 enrichment R. Work on B16 yielded a binding signal of 0.853 enrichment R. Work on B17 yielded a binding signal of 0.752 enrichment R. B18 gave a binding signal of 0.995 enrichment R. B19 gave a binding signal of 1.18 enrichment R. B20 showed a binding signal of 1.26 enrichment R. With B21 the binding signal was 1.15 enrichment R. Work on B22 yielded a binding signal of 1.67 enrichment R.
